# Over roughly 33,000 sequences, “E-score (-0.5 to 0.5)” has its median near -0.054; the highest 2% begin near 0.39. The list shows a part of the results.
# Molecular target: Ylr278c (UniProt Q05854)
# Experiment: PBM E-score (8-mer binding enrichment) (E-score (-0.5 to 0.5)); higher = stronger / more preferred TF binding; most listed sequences are background and not binding sites
# Conditions: protein concentration: 200 nM; construct: GST-DNA-binding domain
# Procedure, shortened: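 PURExpress in vitro transcription/translation supplied GST-tagged yeast transcription factors, either full-length or DNA-binding domain. Applied at about 100-200 nM to universal all-10-mer Agilent arrays double-stranded by primer extension, the bound protein was detected with fluorescent anti-GST. E-scores, modified Wilcoxon-Mann-Whitney statistics, were given by the Universal PBM Analysis Suite to ungapped eight-base words pooled with their reverse complements after masliner normalisation.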
row,Sequence,PBM E-score
1,CAACACCC,-0.111
2,AACAAGTC,-0.0535
3,CTCGGGGA,0.318
4,AAGACATA,-0.262
5,CTCCAGAA,-0.102
6,ACATCTAT,0.0398
7,GGACATAA,0.132
8,AGCACCCC,-0.113
9,CGCGGGAA,0.337
10,GTGAGTTA,-0.175
11,AGTGATGA,-0.149
12,CTCGCAAG,-0.211
13,AGTATTAA,0.00032
14,CAACTGAA,-0.152
15,ATGGGGCA,-0.114
16,GGAGATCA,0.242
17,ACCCAGGC,0.00179
18,CCGCCGAA,0.38
19,CCTAAGGA,-0.0801
20,AGGCGACT,-0.0828
21,CCCTATGC,-0.173
22,AGAAAGCG,0.0364
23,ACTTCGGA,0.368
24,ACTCCCCA,0.034
25,CCGCCCCA,0.204

row,Sequence,PBM E-score
1,AGTGTCTA,-0.183
2,CGTAATCA,-0.138
3,CTTACTCC,0.247
4,ATGGGTAA,-0.0367
5,GTGGCAAC,-0.0372
6,CAACACCG,0.212
7,CTATAGTC,-0.125
8,ACTTACAA,-0.0662
9,AAGAGTAA,0.0123
10,ATTCCTCG,0.0292
11,AACCGTAT,-0.121
12,CAAACGGC,0.0467
13,ATTGAAGG,0.0155
14,CCTGTGAC,-0.265
15,AAGCTGAC,-0.0994
16,CCGGCATC,0.34
17,GAGATTGC,0.0682
18,AGCGTAGC,-0.0983
19,GAGTATTA,0.0363
20,AATAGCGG,0.145
21,CCTTCGTC,-0.194
22,CTCCGCCC,0.457
23,GCAGAGTA,-0.101
24,ACCGACCC,0.161
25,ACCGCAGT,0.0621

row,Sequence,PBM E-score
1,GAGCCCGA,0.168
2,AAAAGGAC,-0.118
3,AACCACTG,-0.136
4,AAATGCCG,0.423
5,CCGAACCA,0.255
6,TCGGAGCA,0.455
7,AGCCCGCA,0.201
8,ACCTGAGA,-0.179
9,CCCTCTAC,-0.37
10,AATGATTC,-0.0438
11,GCGATTCC,0.237
12,ACATACCT,-0.192
13,GTACTGAC,-0.0523
14,CTTACAAG,-0.267
15,AAATTTGA,-0.0307
16,CCCCGTTA,0.0524
17,AACGCTCT,-0.122
18,AGGAGGTC,-0.0814
19,CAGCCCAG,-0.0779
20,CGATCTTC,0.154
21,AACTACGG,0.183
22,CAGAGTCA,-0.305
23,TATTCCCA,0.138
24,AGATGGTC,-0.0931
25,CGGATCCG,0.438

row,Sequence,PBM E-score
1,GGCCCTAA,-0.0963
2,TATAGGGA,-0.0545
3,CGGGCAGC,0.261
4,CACCCGCG,0.224
5,AGCCGTTA,0.127
6,GCGGGTCA,0.118
7,CTAGTCAG,-0.359
8,GCCGCGGA,0.409
9,GAGACTAA,0.112
10,AAGTCTCA,-0.295
11,CTAATGAA,0.00115
12,AAAGATAG,-0.182
13,AACGCATC,-0.165
14,AGTTAAGC,-0.0853
15,ACTAACAC,0.01
16,CGCGAAAA,0.167
17,CCTAATCG,-0.0065
18,CTTTTGAA,-0.00134
19,CTTGGAGA,-0.0088
20,ATAATACG,0.116
21,AACGGAAA,0.374
22,CAGGCCCG,0.153
23,ACATACTG,-0.0691
24,CACTCACG,-0.00908
25,CGGTGCTC,0.183

row,Sequence,PBM E-score
1,AGTCTCGA,-0.174
2,CTTCTCCC,-0.0156
3,GTCCAGCA,-0.31
4,CTGATACC,-0.119
5,AGAAATCG,0.0562
6,GACTCATA,-0.164
7,CGGCGCTC,0.248
8,TCGCGTAA,0.209
9,GGACCCAC,0.167
10,CACGAGCG,-0.0956
11,GGCACAAA,0.0585
12,GACAAAGA,0.00873
13,CAGTGTAA,-0.0366
14,CACTCCTC,0.0388
15,CTACGACC,-0.182
16,AGCTCCGG,0.458
17,AACCATTA,-0.0521
18,AGGAGCTC,-0.122
19,CCGGTCTA,0.153
20,GAGGATGA,-0.021
21,AGACCATC,-0.209
22,CAGGTCTA,-0.14
23,ACGGAAGA,0.169
24,ATATTATA,-0.0766
25,ATACACCG,0.296

row,Sequence,PBM E-score
1,CGGCCTGA,0.0818
2,AAGCGGCC,0.0319
3,ATTTAGAA,-0.127
4,CCGTACCG,0.182
5,CTGGTCAA,-0.18
6,CTAGACCA,-0.261
7,CAGCCCAC,-0.163
8,ACTCTCGA,-0.24
9,AGCTAGGG,-0.0339
10,ACAGTCCG,0.243
11,CGTATTAA,0.00789
12,ACCCTATG,-0.325
13,GCGGGGCC,0.236
14,ACTAAGTC,-0.0888
15,CCCGGCCC,0.346
16,TATAAAGA,-0.114
17,ACTATCGC,-0.0819
18,CTTCTTAC,0.162
19,AAAGCTGT,0.0727
20,GCCAATAA,0.0194
21,AATGAACG,-0.131
22,AATACGAG,-0.102
23,AACCTACC,-0.0252
24,AACCATCC,0.0527
25,CAGGCTCC,0.206

row,Sequence,PBM E-score
1,AACAAAAT,-0.0226
2,AGGAGGAC,-0.294
3,CCGCTCTA,0.127
4,CAATGGGG,-0.0833
5,CTGGGGGA,-0.162
6,CATAGTTC,0.0125
7,CGAACACC,0.122
8,GCATGGCC,-0.0448
9,GCCTTCCC,0.00264
10,TCGTACGA,-0.335
11,ATATAATC,-0.0692
12,AACCACGG,0.108
13,ATTGGGCC,0.0763
14,CCCAGCGG,0.0963
15,CGGCATTA,0.405
16,CTGGGTAC,-0.195
17,AGTGGAAC,-0.0633
18,AGGTCACT,-0.209
19,ACGGTAGG,-0.0726
20,AGCGAACC,-0.0308
21,TCCGTAGA,0.313
22,TAAACCTA,-0.0876
23,CAGGCTTA,-0.12
24,AATCATCC,0.0555
25,AAACCGTA,0.018

row,Sequence,PBM E-score
1,ATTCGCTA,-0.0743
2,AGGGCGCC,0.0842
3,CATACGGC,0.157
4,GATATAGA,-0.12
5,CTCATCAA,0.0123
6,CGATAGCA,-0.0488
7,ATGATCTA,-0.072
8,CTCAACCA,-0.0458
9,CGACCCCA,0.138
10,ACGGTTGG,-0.169
11,ACCAGTAC,-0.14
12,ACTAGGCT,-0.193
13,CACGCACC,0.0301
14,AGGCTAGA,-0.205
15,CTGTCTGC,-0.222
16,CCTTCTAG,-0.271
17,ATGAGGTG,-0.151
18,TGGACACA,0.0272
19,GCAGGGTA,-0.00141
20,AATCCCTG,-0.0994
21,ACGATAAC,-0.0698
22,ACTACACT,-0.111
23,ATCGCTCG,0.138
24,TTTATAAA,0.165
25,ACTGGAAC,-0.12

row,Sequence,PBM E-score
1,AGTCGATG,-0.136
2,AAGCCAGT,-0.336
3,CGATGATC,0.00539
4,ATGTCACG,-0.073
5,AGGGAGGC,-0.0871
6,ACTCGCGG,0.177
7,AAGACGAG,-0.0694
8,GAGGCAAA,-0.0207
9,AGCGTTGA,-0.233
10,GACGGTGC,0.0201
11,GTGGCCAC,0.0307
12,CGGTTAAA,0.191
13,ACTGCATC,-0.142
14,GAGGTTGA,-0.0324
15,ATTATAAA,0.0367
16,CCTAGCGA,-0.306
17,CAGACCAC,-0.196
18,TACCGAGA,0.0909
19,AAGCCCCG,0.313
